# The campaign covered roughly 110,000 compounds. About 230 (0.21%) showed an effect of 50% or more. The list shows a part of the results.
# Target: DPAP1 (Plasmodium falciparum, UniProt Q8IIJ9)
# Assay: primary screen, percent inhibition; read by cleavage of a fluorogenic dipeptide substrate; higher = more effect of the substance
# Design: species or system P. falciparum D10 trophozoite lysates; single well
# 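Also: 30 min substrate incubation versus DMSO and 10 µM JCP410 controls.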
# DPAP1, sequence (Q8IIJ9 whole entry, looked up): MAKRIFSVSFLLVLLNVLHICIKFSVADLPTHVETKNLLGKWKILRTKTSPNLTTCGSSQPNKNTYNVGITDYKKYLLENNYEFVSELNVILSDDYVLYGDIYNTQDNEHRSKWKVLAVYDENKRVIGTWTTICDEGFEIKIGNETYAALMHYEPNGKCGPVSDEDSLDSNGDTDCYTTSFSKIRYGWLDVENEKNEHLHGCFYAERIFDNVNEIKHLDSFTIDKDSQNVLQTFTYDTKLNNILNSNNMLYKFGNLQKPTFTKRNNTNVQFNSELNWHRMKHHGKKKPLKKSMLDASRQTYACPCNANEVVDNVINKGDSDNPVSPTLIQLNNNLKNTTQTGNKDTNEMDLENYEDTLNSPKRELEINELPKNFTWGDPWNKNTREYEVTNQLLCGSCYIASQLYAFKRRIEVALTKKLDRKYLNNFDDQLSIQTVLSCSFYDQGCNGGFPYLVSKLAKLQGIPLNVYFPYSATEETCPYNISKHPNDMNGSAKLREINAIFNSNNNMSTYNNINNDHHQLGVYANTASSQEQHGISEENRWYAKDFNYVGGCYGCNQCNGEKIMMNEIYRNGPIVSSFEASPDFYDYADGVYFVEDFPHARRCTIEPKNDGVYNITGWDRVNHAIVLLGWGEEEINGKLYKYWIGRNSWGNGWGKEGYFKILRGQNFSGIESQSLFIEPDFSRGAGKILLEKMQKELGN
row,SMILES,% Inhibition @ 10 uM
1,CCCn1/c(=N\C(=O)c2cccc(OC)c2)c(C(=O)OCC)cc2c(=O)n3ccccc3nc21,3.61%
2,CC1(C)CC2=Nc3nc(SCCN4CCOCC4)nc(O)c3C(c3cccs3)C2=C(O)C1 (stereo not shown),8.5%
3,Cc1cccc(CCNC(=O)C2CCCN(c3ncnc4c3nc3n4CCCCC3)C2)c1 (stereo not shown),-0.48%
4,COc1cccc(CN2CCN(Cc3ccc(C(F)(F)F)cc3)CC2)c1OC,9.76%
5,O=C(C(=O)c1ccc(-c2ccccc2)cc1)c1ccccc1,4.35%
6,CCC(CC)NCc1ccc(OC)cc1OC,4.3%
7,O=C(NCCC1=CCCCC1)c1ccc(CNS(=O)(=O)c2ccc(Cl)cc2)cc1,-5.64%
8,COc1ccccc1/N=c1/sc2ccccc2n1C,-6.43%
9,O=C(CCCOc1ccc(Cl)cc1Cl)NCc1nc2ccccc2[nH]1,7.24%
10,Fc1ccc(CN2CCN(C/C=C/c3ccccc3)CC2)cc1F,-2.56%
11,CCCN1CN(Cc2ccccc2)CC2=C1CC(C)(C)CC2=O,7.94%
12,CCCS(=O)(=O)c1c(S(=O)(=O)CCC)c2ccccn2c1C(N)=O,-1.25%
13,CCOc1ccc(-c2cc(NC(=O)c3c(F)cccc3F)c(C(=O)O)s2)cc1,1.22%
14,COc1ccccc1NC(=O)C1=C(C)N=C2CC(C)(C)CC(O)=C2C1c1cccc(O)c1 (stereo not shown),-0.366%
15,CC(=O)NCc1cccc(CNC(C)=O)n1,-2.63%
16,Cc1cccc(C(=O)Nc2c(-c3ccccc3)nc3ccccn23)c1,2.83%
17,O=C1OC(/C=C/c2ccccc2)=NC/1=C/c1cccs1,-1.29%
18,CC1=NC2=C(C(=O)CC(C)(C)C2)C(c2ccccn2)/C1=C(/O)OC(C)C (stereo not shown),2.22%
19,COc1ccccc1C(=O)Nc1c(O)oc2ccccc2c1=O,-3.9%
20,COc1ccc(/C=C2/NC(=O)N(Cc3ccccc3F)C2=O)cc1,-3.63%
21,O=C1NC(=O)N(c2ccccc2)C(=O)/C1=C\Nc1ccc(S(=O)(=O)N2CCCCC2)cc1,-2.8%
22,CCc1c(C)nc(Nc2nc(C)c3cc(C)ccc3n2)nc1O,-3.29%

row,SMILES,% Inhibition @ 10 uM
1,COc1ccc(Br)cc1CNCCNC(=O)c1nonc1N,3.84%
2,CN1CCN(c2ccc(NC(=O)c3cccc(Br)c3)cc2)CC1,8.43%
3,CC(NC(=O)Cn1ncc2c1-c1ccccc1OC2)c1ccc2c(c1)OCCO2 (stereo not shown),-6.07%
4,O=C1c2ccccc2COC12OCc1ccccc12 (stereo not shown),-5.7%
5,O=C(Nc1cccc(Cl)c1)N(CCN1CCOCC1)Cc1ccccc1F,-0.519%
6,Cc1c(-n2nnc3ccccc32)cnc2nncn12,2.57%
7,CCN(CC)C(=O)C(=O)NC(C)C(c1cccs1)N1CCN(C)CC1 (stereo not shown),0.66%
8,COCCCNC(=O)C(C)n1nc(C)c2c(C)n(-c3ccccc3)nc2c1=O (stereo not shown),4.32%
9,COc1cccc(C(=O)N[C@@H](CC2CCCCC2)C(=O)NCC#N)c1,1.35%
10,C1CCN(CCNC2CCSC2)CC1 (stereo not shown),2.99%
11,Cc1nn(C(C)C(=O)NCCC2=CCCCC2)c(=O)c2c1sc1ccccc12 (stereo not shown),1.31%
12,CCc1cc2c(=O)n(Cc3cccc(C)c3)cnc2s1,-1.26%
13,CCC(C)NC(=O)c1ccc(COc2ccc(Cl)cc2)o1 (stereo not shown),0.5%
14,Fc1ccc(-c2cc(C(F)(F)F)nc(NC3CCCC3)n2)cc1,-0.503%
15,COc1cc(CN2CCCCCC2)c([N+](=O)[O-])cc1OC,-3.56%
16,CCN1CCN(CCNC(=O)C(C)n2nc(C)c3c(C)n(-c4ccccc4)nc3c2=O)CC1 (stereo not shown),-1.94%
17,O=C(COc1ccccc1)NCCn1ccc2ccccc21,-4.16%
18,CCCN(CCO)CC1=CC[C@H]2C[C@@H]1C2(C)C,-4.37%
19,O=C(NCc1ccc2c(c1)OCO2)c1cc(S(=O)(=O)N2CCCCC2)c[nH]1,0.0281%
20,O=C(Nc1ccc(-c2cn3cccnc3n2)cc1)c1ccc(Br)cc1,0.13%
21,COc1cc(C2C(C#N)=C(N)OC3=C2C(=O)c2ccccc2C3=O)cc(OC)c1OC (stereo not shown),-0.0678%
22,Cc1ccsc1C(C#N)NC(=O)C(CC(C)CC(C)(C)C)NC(=O)OCc1ccccc1 (stereo not shown),4.63%

row,SMILES,% Inhibition @ 10 uM
1,NC(=O)c1cc(-c2ccc(O)cc2)nc2ccccc12,-2.35%
2,COc1ccc(CC(=O)N2CCOCC2)cc1,-1.92%
3,Cc1cccc(NC(=O)C(CC(C)C)N2Cc3ccccc3C2=O)n1 (stereo not shown),-7.33%
4,Sc1nnc(-c2ccccc2)n1/N=C/c1cc2c(cc1Cl)OCO2,1.25%
5,CC(C)C[C@H](NC(=O)c1ccccc1CCc1ccccc1)C(=O)NCC#N,-3.04%
6,CCN(CC)Cc1n[nH]c(CN(CC)CC)n1,2.02%
7,Cc1ccc(CN(C(=O)COc2cc(C)c(Cl)c(C)c2)C2CCS(=O)(=O)C2)o1 (stereo not shown),5.29%
8,COc1ccc2c(c1)CC/C(=C\c1cccc([N+](=O)[O-])c1)C2=O,-0.0369%
9,c1ccn(-c2ccc(-c3noc(C4CCCCC4)n3)cc2)c1,2.99%
10,COc1ccc(CCNc2sc(S(C)(=O)=O)nc2S(=O)(=O)c2ccc(Cl)cc2)cc1,-0.522%
11,Cc1ccc(-c2cc(-c3ccc(F)cc3)nc(N)c2C#N)o1,-3.13%
12,Cc1ccc(C2=NC(=O)/C(=C/c3cc(O)c(O)c(Br)c3)S2)cc1,22.3%
13,Cc1ccc(C(=O)NC(Cc2c[nH]c3ccccc23)C(=O)O)o1 (stereo not shown),0.503%
14,N#CC1=C(N)N2C(=C(C#N)C1c1ccc(Cl)cc1)Sc1ccccc12 (stereo not shown),6.06%
15,CC(C)CC1=NN2C(=N)/C(=C/c3cccc4ccccc34)C(=O)N=C2S1,2.17%
16,CN1CCC(N2CCN(C/C=C/c3ccccc3)CC2)CC1,4.75%
17,O=c1oc2ccc3ccccc3c2cc1-c1csc(NC2CCCCC2)n1,4.02%
18,COc1cc(OC)c(C=C2C(=O)OC3(CCCC3)OC2=O)cc1Br,-0.85%
19,CCOc1ccc(N2C(=O)CC(N3CCN(Cc4ccc5c(c4)OCO5)CC3)C2=O)cc1 (stereo not shown),-4.21%
20,OCCNCc1cc(Br)ccc1OCc1ccc(Cl)cc1Cl,-3.87%

# Reference: publication PMC6919601, “Identification of Plasmodium dipeptidyl aminopeptidase allosteric inhibitors by high throughput screening” (PLoS ONE, 2019)
